Results reported in the supplement of paper PMC8728848.
Some of the results follow.

Columns and labels:
Test in all cases: glycan array binding signal (z-score within array); higher = stronger binding
Settings in all cases: glycan notation: IUPAC condensed, linker removed
Fuc(a1-2)Gal = molecular target: Fuc(a1-2)Gal
Summary of the method: (§1)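 Glycan array data were curated from 3228 arrays in the Consortium for Functional Glycomics database and kept only where the protein sequence was available. Glycan names were converted to IUPAC-condensed notation, and columns mapping to the same glycan were averaged. The binding signal is a within-array Z-score, averaged across arrays of the same protein sequence at different concentrations or buffers and across linkers. Negative Z-scores can be read as non-binding.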

Fuc(a1-2)Gal(b1-3)GalNAc = molecular target: Fuc(a1-2)Gal(b1-3)GalNAc
Summary of the method: as §1

[1] = molecular target: Fuc(a1-2)Gal(b1-3)GalNAc(a1-3)[Fuc(a1-2)]Gal(b1-4)Glc
Summary of the method: as §1

[2] = molecular target: Fuc(a1-2)Gal(b1-3)GalNAc(a1-3)[Fuc(a1-2)]Gal(b1-4)GlcNAc
Summary of the method: as §1

[3] = molecular target: Fuc(a1-2)Gal(b1-3)GalNAc(b1-3)Gal
Summary of the method: as §1

[4] = molecular target: Fuc(a1-2)Gal(b1-3)GalNAc(b1-3)Gal(a1-4)Gal(b1-4)Glc
Summary of the method: as §1

[5] = molecular target: Fuc(a1-2)Gal(b1-3)GalNAc(b1-4)[Neu5Ac(a2-3)]Gal(b1-4)Glc
Summary of the method: as §1

Fuc(a1-2)Gal(b1-3)GlcNAc = molecular target: Fuc(a1-2)Gal(b1-3)GlcNAc
Summary of the method: as §1

[6] = molecular target: Fuc(a1-2)Gal(b1-3)GlcNAc(b1-2)Man(a1-3)[Fuc(a1-2)Gal(b1-3)GlcNAc(b1-2)Man(a1-6)]Man(b1-4)GlcNAc(b1-4)GlcNAc
Summary of the method: as §1

[7] = molecular target: Fuc(a1-2)Gal(b1-3)GlcNAc(b1-2)Man(a1-3)[Fuc(a1-2)Gal(b1-3)GlcNAc(b1-2)Man(a1-6)]Man(b1-4)GlcNAc(b1-4)[Fuc(a1-6)]GlcNAc
Summary of the method: as §1

[8] = molecular target: Fuc(a1-2)Gal(b1-3)GlcNAc(b1-3)Gal(b1-4)Glc
Summary of the method: as §1

[9] = molecular target: Fuc(a1-2)Gal(b1-3)GlcNAc(b1-3)GalNAc
Summary of the method: as §1

[10] = molecular target: Fuc(a1-2)Gal(b1-3)GlcNAc(b1-3)[Fuc(a1-2)Gal(b1-3)GlcNAc(b1-6)]GalNAc
Summary of the method: as §1

[11] = molecular target: Fuc(a1-2)Gal(b1-3)GlcNAc(b1-3)[Fuc(a1-3)[Gal(b1-4)]GlcNAc(b1-6)]Gal(b1-4)Glc
Summary of the method: as §1

[12] = molecular target: Fuc(a1-2)Gal(b1-3)GlcNAc(b1-3)[Gal(b1-4)GlcNAc(b1-6)]Gal(b1-4)Glc
Summary of the method: as §1

[13] = molecular target: Fuc(a1-2)Gal(b1-3)GlcNAc(b1-3)[Neu5Ac(a2-6)Gal(b1-4)GlcNAc(b1-6)]Gal(b1-4)Glc
Summary of the method: as §1

[14] = molecular target: Fuc(a1-2)Gal(b1-3)GlcNAc6S
Summary of the method: as §1

[15] = molecular target: Fuc(a1-2)Gal(b1-3)[Fuc(a1-4)]GlcNAc
Summary of the method: as §1

[16] = molecular target: Fuc(a1-2)Gal(b1-3)[Fuc(a1-4)]GlcNAc(b1-2)Man(a1-3)[Fuc(a1-2)Gal(b1-3)[Fuc(a1-4)]GlcNAc(b1-2)Man(a1-3)]Man(b1-4)GlcNAc(b1-4)GlcNAc
Summary of the method: as §1

[17] = molecular target: Fuc(a1-2)Gal(b1-3)[Fuc(a1-4)]GlcNAc(b1-2)Man(a1-3)[Fuc(a1-2)Gal(b1-3)[Fuc(a1-4)]GlcNAc(b1-2)Man(a1-6)]Man(b1-4)GlcNAc(b1-4)GlcNAc
Summary of the method: as §1

[18] = molecular target: Fuc(a1-2)Gal(b1-3)[Fuc(a1-4)]GlcNAc(b1-2)Man(a1-3)[Fuc(a1-2)Gal(b1-3)[Fuc(a1-4)]GlcNAc(b1-2)Man(a1-6)]Man(b1-4)GlcNAc(b1-4)[Fuc(a1-6)]GlcNAc(b1-4)[Fuc(a1-6)]GlcNAc
Summary of the method: as §1

[19] = molecular target: Fuc(a1-2)Gal(b1-3)[Fuc(a1-4)]GlcNAc(b1-3)[Fuc(a1-3)[Gal(b1-4)]GlcNAc(b1-6)]Gal(b1-4)Glc
Summary of the method: as §1

[20] = molecular target: Fuc(a1-2)Gal(b1-3)[Fuc(a1-4)]GlcNAc(b1-3)[Gal(b1-4)GlcNAc(b1-6)]Gal(b1-4)Glc
Summary of the method: as §1

[21] = molecular target: Fuc(a1-2)Gal(b1-4)Fuc(a1-3)]GlcNAc(b1-2)Man(a1-3)[Fuc(a1-2)Gal(b1-4)[Fuc(a1-3)]GlcNAc(b1-2)Man(a1-6)]Man(b1-4)GlcNAc(b1-4)GlcNAc
Summary of the method: as §1

Fuc(a1-2)Gal(b1-4)Glc = molecular target: Fuc(a1-2)Gal(b1-4)Glc
Summary of the method: as §1

Fuc(a1-2)Gal(b1-4)Glc6S = molecular target: Fuc(a1-2)Gal(b1-4)Glc6S
Summary of the method: as §1

Fuc(a1-2)Gal(b1-4)GlcNAc = molecular target: Fuc(a1-2)Gal(b1-4)GlcNAc
Summary of the method: as §1

[22] = molecular target: Fuc(a1-2)Gal(b1-4)GlcNAc(b1-2)Man
Summary of the method: as §1

[23] = molecular target: Fuc(a1-2)Gal(b1-4)GlcNAc(b1-2)Man(a1-3)[Fuc(a1-2)Gal(b1-4)GlcNAc(b1-2)Man(a1-6)]Man(b1-4)GlcNAc(b1-4)GlcNAc
Summary of the method: as §1

[24] = molecular target: Fuc(a1-2)Gal(b1-4)GlcNAc(b1-2)Man(a1-3)[Fuc(a1-2)Gal(b1-4)GlcNAc(b1-2)Man(a1-6)]Man(b1-4)GlcNAc(b1-4)[Fuc(a1-6)]GlcNAc
Summary of the method: as §1

B1: Siglec-F (Mus musculus), Q920G3 (protein)
chain: MRWAWLLPLLWAGCLATDGYSLSVTGSVTVQEGLCVFVACQVQYPNSKGPVFGYWFREGANIFSGSPVATNDPQRSVLKEAQGRFYLMGKENSHNCSLDIRDAQKIDTGTYFFRLDGSVKYSFQKSMLSVLVIALTEVPNIQVTSTLVSGNSTKLLCSVPWACEQGTPPIFSWMSSALTSLGHRTTLSSELNLTPRPQDNGTNLTCQVNLPGTGVTVERTQQLSVIYAPQKMTIRVSWGDDTGTKVLQSGASLQIQEGESLSLVCMADSNPPAVLSWERPTQKPFQLSTPAELQLPRAELEDQGKYICQAQNSQGAQTASVSLSIRSLLQLLGPSCSFEGQGLHCSCSSRAWPAPSLRWRLGEGVLEGNSSNGSFTVKSSSAGQWANSSLILSMEFSSNHRLSCEAWSDNRVQRATILLVSGPKVSQAGKSETSRGTVLGAIWGAGLMALLAVCLCLIFFTVKVLRKKSALKVAATKGNHLAKNPASTINSASITSSNIALGYPIQGHLNEPGSQTQKEQPPLATVPDTQKDEPELHYASLSFQGPMPPKPQNTEAMKSVYTEIKIHKC
glycan array binding signal (z-score) (Fuc(a1-2)Gal): -0.118 | glycan array binding signal (z-score) (Fuc(a1-2)Gal(b1-3)GalNAc): -0.13 | glycan array binding signal (z-score) [1]: -0.098 | glycan array binding signal (z-score) [2]: -0.114 | glycan array binding signal (z-score) [3]: -0.124 | glycan array binding signal (z-score) [4]: -0.117 | glycan array binding signal (z-score) [5]: -0.122 | glycan array binding signal (z-score) (Fuc(a1-2)Gal(b1-3)GlcNAc): -0.119 | glycan array binding signal (z-score) [6]: -0.1 | glycan array binding signal (z-score) [7]: -0.079 | glycan array binding signal (z-score) [8]: -0.122 | glycan array binding signal (z-score) [9]: -0.126 | glycan array binding signal (z-score) [10]: -0.142 | glycan array binding signal (z-score) [11]: -0.088 | glycan array binding signal (z-score) [12]: -0.126 | glycan array binding signal (z-score) [13]: -0.115 | glycan array binding signal (z-score) [14]: -0.074 | glycan array binding signal (z-score) [15]: -0.132 | glycan array binding signal (z-score) [16]: -0.076 | glycan array binding signal (z-score) [17]: -0.079 | glycan array binding signal (z-score) [18]: -0.114 | glycan array binding signal (z-score) [19]: -0.122 | glycan array binding signal (z-score) [20]: -0.104 | glycan array binding signal (z-score) [21]: 0.032 | glycan array binding signal (z-score) (Fuc(a1-2)Gal(b1-4)Glc): -0.101 | glycan array binding signal (z-score) (Fuc(a1-2)Gal(b1-4)Glc6S): -0.111 | glycan array binding signal (z-score) (Fuc(a1-2)Gal(b1-4)GlcNAc): -0.119 | glycan array binding signal (z-score) [22]: -0.138 | glycan array binding signal (z-score) [23]: 0.132 | glycan array binding signal (z-score) [24]: -0.123
